In the supplement of paper PMC10126150:
Sequences with one replicate were seen in a single cluster, so their values are uncertain.

Tested on: ATP
Test: switch fluorescence ratio, 500 uM ATP over buffer (Cy3 cluster intensity, sum of 5 cycles each) (fold (ratio)); higher = stronger signal-on switching upon ATP binding; sequences stand for … in TCGTCGGCAGCGTCAGATGTGTATAAGAGACAGTTTTTTTTTTTTTTTTTTTTTTTTT…TC
Settings: aptamer strand: ATP DNA aptamer (quencher-CACCTGGGGGAGTATTGCGGAGGAAGG + anchor), 100 nM annealed; ATP concentration: 500 uM; one replicate
Outline: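 Clusters carrying Cy3-labelled switching strands on a modified Illumina MiSeq flow-cell were annealed to 100 nM quencher-labelled ATP aptamer and imaged in selection buffer. They were imaged again after 15 min with 500 uM ATP at 22 °C, over five buffer/ATP cycles with NaOH stripping and re-annealing in between. For each cluster, the fluorescence ratio is the summed Cy3 intensity of the target cycles divided by that of the buffer cycles, averaged per switch-domain sequence. Clusters outside 100-1000 RFU were left out.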
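Further: ATP exposure 15 min at 22 °C before imaging.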

Sequence | switch fluorescence ratio
AGTGCATAAG | 0.996
ACGTTGTAAC | 0.976
ATGGAGGAAT | 1.16
TAGCCTATGC | 0.976
ACAGACTGTT | 0.981
AGTCGATCGG | 1.02
GCGTGTTAGC | 1.03
AATTGACATT | 0.981
AAGCTGTGT | 0.993
AAGCCACTTG | 1.05
GATGGCTGGC | 1.14
AGCGGAAAGA | 1.02
TCACGAATTC | 1.01
GATGGGTGCT | 1.02
GCGTGTATGC | 1.06
GGCATT | 0.938
AGTCTAAAAA | 1.02
AACGTGCACA | 0.99
TGAAAGCAAT | 1.67
GCGCTCGACC | 1.28
CGTCCAGAAC | 1.09
AGAAATCTT | 1.03
CCGAGTCCGG | 1.45
AAGAGAAGGT | 0.947
GGTTACGTGC | 1.06
CGGGCAGGAA | 1.01

Sequence | switch fluorescence ratio
TAGACCCTGA | 1
ACACGGTTGT | 1.01
TAACGCCACT | 2.13
TACGGATTCG | 1
AGGACATGGG | 1.01
GTAGTTACGC | 1.03
GCCCCCACGT | 1.19
CTTTGTTTTA | 0.954
CGTAACAACA | 1.01
TTCCGCCGTT | 1.18
CGTGGCGATC | 1.02
GATTGAGTCA | 0.958
AGTCTCAATC | 1.02
CACTATAAAC | 1.06
AATAAAGAGG | 1.01
GAGCCTGCCA | 0.937
TCGATTCGCA | 1.09
ACAGTAAATC | 1.01
ATTGCCGCGA | 1.23
CTATACTAAA | 1.06
AGCCCGTTTC | 1.01
TAGGTGGCAG | 1.02
TTTATTCTGG | 0.986
CAGGTCACTC | 1.01
GCGGTGCCTA | 0.972
CACTCCTGGG | 1.07

Sequence | switch fluorescence ratio
TCTAGATAAC | 1
GATTTACTAT | 1.01
GATCTAAATA | 1.01
GTTCACTAAC | 1.06
AACGCGAAGG | 1.02
CGTACAATAT | 1.89
ACGACGACAA | 5.3
TCACAGAATG | 0.993
CAACTCCACT | 1.16
GGTCAGTTAC | 1.09
ACGTTTGGGT | 0.984
GTAGATACCG | 0.998
ACGCCTGTTT | 1.04
GTTTGTGAGT | 1.02
GATATCTGTT | 0.967
GTTCGGGCTG | 1.07
TTTTTCAGAA | 0.994
GGAATCCCAT | 1.06
TGAGCACGAG | 1.1
GGCACGGGCT | 0.99
CATCCGTGCT | 1.42
AACCTTGTCG | 1.11
TATGGGCTT | 0.998
ATTTCCAGGG | 1.52
TCACTGGCTG | 1.07
GCTTTGTTAT | 1.01

Sequence | switch fluorescence ratio
AGGGGCATCA | 0.976
GATAACCACT | 0.998
TAGGCCGCTT | 0.979
AAAAGCAG | 0.986
AAATGATATG | 0.989
GCCGGGAACT | 1.02
TTTTCCCAGG | 2.91
TGAAGGTTGT | 0.952
AATAGCAGAT | 0.999
AGATAATGGA | 1.02
TTTACGACTT | 1.01
AGCTGTAGGA | 1
GTCGCAGTTG | 1.03
GGAGAGGCAA | 1.11
TCCGTTCAGT | 0.968
CCACGTCGAA | 1.03
TTAACGCCGA | 0.977
CGTCCTAGAA | 1.01
CCTGGTGATG | 1.17
AATGTTGGGC | 0.949
GTCGTCAGAC | 1.01
AGACGCTTGA | 1.02
TGCGTGTTTA | 1
ATAATCTTTA | 0.983
TCCCCAGGAC | 1.56
TGACGTCCTT | 1.03

Sequence | switch fluorescence ratio
TCATGTGATT | 1
GTTTAGTA | 0.936
AATGAAAAGC | 0.989
TTTTCCGGAC | 1.15
TTTACGTTAC | 1.81
CATAGCCTGA | 1.02
TATCTTGTTA | 0.999
ACATTTCGGC | 1.01
CGTTCGCGA | 2.78
TTATCGTGG | 0.988
ATCTTCATGT | 1.02
GTTTAGGGCC | 1.01
TGCTGATCTA | 0.993
TGCTTAAGAG | 1.03
CGTAACCGT | 0.991
CGATGGTGCT | 1
CAATGAATGG | 1.09
GGTGTAGAAT | 1.02
ACTCATGTTC | 1.05
ATATTCTGAC | 1.11
TGGACTCGTC | 1.02
CAGGGGGTT | 1.01
ATCATGAGCT | 0.998
GACGGTGTCA | 1
TTGAAGACCA | 1.03
AGTCGGGGA | 1.07

Sequence | switch fluorescence ratio
GAGCGTAGTT | 0.979
ACTAGGGCTT | 1.02
TCCATATTAT | 0.956
TAGAGCACAC | 1.09
GGATTGTCGA | 0.992
TGCTCGCGCG | 0.975
CTACGGACTG | 1.42
GGTCGGTAGC | 0.985
CAAAAACCAC | 1.08
GGTATCAATA | 1.04
TCTCTGGGGG | 1.03
GTCTCGACAG | 0.999
GACTTAAGAT | 0.976
TGAGCATTTG | 1.01
GATACGGTCT | 1.08
GCACCCCAGT | 1.6
TCACACCCAA | 1.21
TTTCGAGTAC | 1.02
TTATCTGATG | 0.993
TAGCACATGT | 1.01
TACTGGTTTT | 1
CAACTGCGGC | 1.14
AGGCTTCGGA | 0.979
TATTTTCGAG | 0.959
GCGTAAGCCT | 1.01
TTTTTATCG | 1.01

Sequence | switch fluorescence ratio
CGCACACAGG | 1.06
ATGCTCGTTA | 1.02
AATAGCAAGT | 1.12
TACCGCTCCA | 1.58
AGGGGGGACC | 1.01
TACGGGGCAC | 1.02
GGTTCGCGGG | 0.975
GCTACGCCGG | 1.03
TGGCTCACTT | 1.04
CAGACCTAGC | 1.03
ATGCAATATG | 1.2
GCACGGTAGT | 1.03
ACCTATTTAA | 1.04
TGACGGTGAA | 0.964
ATTACAAGCA | 1.02
GTGGTTGGAC | 1.02
CAGCCAGCAC | 2.04
TAGCAATCAT | 1.33
GTCTCACCTT | 1.07
GCCTGCACAC | 1.49
TATCCTCTAT | 1.2
CTGCAAAA | 1.36
ACGCCCGCAT | 1.61
ATAGATATTA | 1.01
GCGGGGTTG | 0.983
GTTATTTCTA | 0.978

Sequence | switch fluorescence ratio
AGTCATCTAT | 0.972
CGGTGAGACC | 0.999
GGTGTACTGT | 1.02
GGCATTGTGC | 0.985
AGCTGGCCTA | 1.03
AGAAGTCTGT | 0.968
GGAACATGTC | 0.997
TGGGGGATAG | 0.979
ACCGGGGTAG | 1.04
GGCCAACGGG | 1.04
AGCCGGTT | 0.941
TAGTCGCAA | 2.43
TCCTGATCTG | 1
CACCGTGTCG | 1.05
AACGGATGCC | 1.03
TGGTGCGGTC | 1.03
CATGTATATA | 1
GGATGAAGGT | 0.961
GCACTTTG | 1.02
